Laboratory results: PubChem BioAssay (NCI)
Some structures have more than one record in an assay (separate samples or runs), and their calls can disagree.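 Cells were grown in 96-well plates and exposed to the test compound at a single concentration for 48 hours; results are reported as percent growth, with values below 10 considered active.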 For part of its entries the source gives two or more results. They are shown here; other results are not. There may be further records. These are repeated runs of one drug, at its own concentration, as given; one value stands for one run. Brackets with × count equal records among those shown.

System: OVCAR-4 ovarian
Test: NCI-60 one-dose screen, 48 h (100 = growth as untreated, 0 = no growth, -100 = all killed)

For `COc1cccc2c1C(=O)c1c(O)c3c(c(O)c1C2=O)C[C@@](O)(C(=O)CO)C[C@@H]3OC1CC(N)C(O)C(C)O1` (stereo not given in full), the growth (0.25 µM, runs of 2018) was “inactive: 93.1, 94.7, 93.9, 89.8 (2×), 90.5, 92.4, 81.3, 91.6, 92.7, 80, 88.7, 93.5, 92.2, 85.1, 74.5, 79.5, 73.6, 73.2, 70.2, 81.8, 78.1, 71.9 (3×), 71.5, 74, 78.7, 67, 71.1, 72.6, 69.7, 69.2 (2×), 77, 74.8, 67.5 (2×), 69.8, 75.2, 81.5, 67.4, 77.3, 74.7, 69.6, 70.4, 72.3, 68.5, 76.6, 52.4, 60.7%”, the growth (0.25 µM, runs of 2019) was “inactive: 55, 55.2, 63.2 (2×), 58.6, 63.1, 68.8, 62.9 (2×), 62.6 (2×), 66.5, 71.3, 60.1, 65.8, 55.4, 67.3, 65.4, 63.5, 65.3, 58.8, 61.4, 58.9, 62.1 (2×), 67.9, 71.1, 69.7, 54.9, 71.6 (2×), 60.8, 64.9, 67.4, 61.5, 57, 59.3, 73.8, 65.7 (2×), 56.1, 63, 66.3, 69.6, 67.1, 66.1, 71.8, 58.7, 64, 61.7, 62.5%” and the growth (0.25 µM, runs of 2020) was “inactive: 64.5, 63.5, 70.8, 74.4, 71.6, 70.2, 63.8, 72.3, 73, 67.4, 73.2, 62.7, 56.4, 71, 71.7, 76, 85.8, 72.9, 73.9, 79.5 (2×), 74.5 (2×), 70, 70.4, 64.7%”. The growth (0.25 µM, runs of 2021) was “inactive: 70.4, 74.2, 76.1, 78, 73.2, 70.6, 73.8, 76, 66.7, 65.3, 70.7, 83.9, 75, 91.4, 87.9, 87.7, 84.9, 97.5, 81.2, 81.6, 94.8, 90.4 (3×), 92.8, 94.7, 92.9, 97.2, 92.7, 91.9, 86.2, 83.8, 87, 83.1, 87.2, 86.1, 97.9, 93.1, 91.6, 91.1, 88.2, 76.6, 65.1, 77.6, 91.5, 72.7, 75.3, 87.3, 90.5, 84.7%”, the growth (0.25 µM, runs of 2022) was “inactive: 67.4, 66.8, 86.8, 91.8, 43.2, 86.7, 66.7, 81, 87.6, 78.4, 74.2, 84.8, 69.2, 75.6, 72.1 (2×), 77.3, 98.9 (2×), 98.7, 93.5, 105, 111, 92.4 (2×), 92.8, 93.1, 83.8%” and the growth (25 µM, runs of 1991) was “active: -35.9, -31.5, -22.5, -29.4, -57.6, -21, -51.2, -57.8, -22.9, -33.1, -20.7, -37.1, -16.4, -39.1, -34, -5.68, -9.36%”. The growth (25 µM, runs of 1992) was “active: -19.6, -33.4, -14, -48.9 (2×), -15.3, -13.1, -15.6, -19.9, -33.1, -27.3, -56.6, -56.3, -60.1, -37.1, -24.5, 1.63, -17.8, 7.75, -10.2, 0.92, -36.8 (2×), -27.8, -12.6, -8.94, 2.02, -61.6, -26.9, -13.9, -33.5, -36 (3×), -33.8 (2×), -47.4 (2×), -8.15, -28.8, -34, -21.3, -19.8, -36.9, -27.7, -29.8 (2×), -23.9, -44.6, -50, -54.6, -52.8, -8.76, -43.6, -47.9, -41.1, -9.49, -33.6 (2×), -34.9, -43.5, -39.2, -57.3, -43, -61.7, -52.7, -71.9, -66, -67.5, -57.7, -59.3, -49.1, -41.7, -59.7, -15.8, -30.4, -49.7, -20.6, -43.4, -44.7, -55, -53.1, -42.2, -28.3, 3.28, -26.5 (2×), -40.9, -57.5, -57.2, -65.5, -39.9, -7.13, -56.2, -65.3, -35.9, -9.48, -55.5, -56.8, -58.4, -55.6, -42.7, -67.8, -71.8, -55.3, -4.55, -41.2, -36.7, -54.1, -52.3, -62.5%”, the growth (25 µM, runs of 1993) was “active: -47.4, 9.75, -50, -45 (2×), -68.2, -41.3, -31.4, -34.9, -30.2, -41.9, -16.2, -17.2, -34.6, -28.4, -2.44, -18, -55.2, -32.8, -49.5, -59.2, -55.3, -17.7, -1.54, -25.1, -67, -23.7, -23.4, -22.8, -43.8, -22.6, -26.6, -21.5, -25.4, -40.3, -57.6, -40.6, -51.7, -56.3, -44.3, -18.8, -53.5, 4.14, -23.8, -46.6, -34.8% and inactive: 18%, 17.1%” and the growth (25 µM, runs of 1994) was “active: -57.2, -54.7, -49.6 (2×), -36.8, -71.9, -29.2, -39.3, -46.5, -12.2, -29.8, -34.8, -17.7, -42.3, 0.693, -47.4, -61.7, -25.4, -41.3, -46, -69.4, 4.46, -30.1, -73.4, -50.8, -15.9, -55.7, 0.0639, -88.6, -40.3% and inactive: 111%, 37%”. The growth (25 µM, runs of 1995) was “active: -41.2 (2×), -71.6, -46.7, -24.4, -42.5, -39.7, -52, -9.87, -33.1, -39, -45.5, -50.9, -57.5, -47.8, -27.4, -49.8, -43, -28.7, -42.8, -72.4, -39.4, -23.4, -37.3, -54.3, 7.56, -26.5, -31.5, 4.64, -28.1, -42.3, -43.8 (2×), -41.8, -26.2, -30.6, -47, -49% and inactive: 11.4%”, the growth (25 µM, runs of 1996) was “active: -46.6, -7.3, -45.3, -11, -28.6, -44.6, -28.4, -30.3, -54.9, -28.1, -13.5, -29.8, -31.6, -10.6, -54.3, -52.5, -42.3, -14.9, -44.2, 1.12, -38.3, -49.3, 2.2, -20.2, -36.9, -48.7, -28, -52.3, -4.01, -24.3, -57.9, -34.3, -36.8, -41.7, -44.4, -63.9, -41.4, -12.5, -56, -47.5, -21.2, -56.4, -61.2, -58.2, -27.2, -39.3, -36.1, -27.3, -26.9, -26.5, -14.3, -14.8, -56.2% and inactive: 90.8%, 39.8%” and the growth (25 µM, runs of 1997) was “active: -22.8, -56.6, -4.42, -30.6, -55.7, -58.7, -33.8, -62.6, -35.8, -24.2, -32.6, -49.9, -58.4, -53.1, -38, -35.4, -43, -40, -54.7, -44.4, -56.9, -42.6, -34.4, -35.9, -15.4, -22.9, -4.2, -16.5, -39.7, -18.7, -27.4, -38.3, -46.4, -34.7, -17.2, -7.19, -9.86, -41.9, -17.8, -26.6%”. The growth (25 µM, runs of 1998) was “active: -4.61, -53.5, -4.55, -33.9, -2.72, -29.7, -35.9, -67.4, -45.6, -48.7, -47.3, -54.8, -58.5, -56.9, -5.7, -49.5, -42.5, -38.1, -33.4, -35.1, -43.9, -35% and inactive: 24.5%, 23.8%”, the growth (25 µM, runs of 1999) was “active: -29.2, -47.6, -61.7, -55.8, -50 (2×), -4, -38.1, -75.3, -71.4, 1.29, 2.23, -100, 0.74, -63.5% and inactive: 17.4%” and the growth (25 µM, runs of 2000) was “active: -61.5, -100, 0.439, -78.1%”.
